Laboratory results published in the supplement of paper PMC3334620.
The full ranking holds about 33,000 sequences; the median of “E-score (-0.5 to 0.5)” is about -0.035, and the highest 2% start at about 0.35. The list shows a part of the results.

target: T1, Pdr3 (UniProt P33200); assay: PBM E-score (8-mer binding enrichment) (E-score (-0.5 to 0.5)); higher = stronger / more preferred TF binding; most listed sequences are background and not binding sites; settings: protein concentration: 200 nM; construct: GST-full length
T1 sequence: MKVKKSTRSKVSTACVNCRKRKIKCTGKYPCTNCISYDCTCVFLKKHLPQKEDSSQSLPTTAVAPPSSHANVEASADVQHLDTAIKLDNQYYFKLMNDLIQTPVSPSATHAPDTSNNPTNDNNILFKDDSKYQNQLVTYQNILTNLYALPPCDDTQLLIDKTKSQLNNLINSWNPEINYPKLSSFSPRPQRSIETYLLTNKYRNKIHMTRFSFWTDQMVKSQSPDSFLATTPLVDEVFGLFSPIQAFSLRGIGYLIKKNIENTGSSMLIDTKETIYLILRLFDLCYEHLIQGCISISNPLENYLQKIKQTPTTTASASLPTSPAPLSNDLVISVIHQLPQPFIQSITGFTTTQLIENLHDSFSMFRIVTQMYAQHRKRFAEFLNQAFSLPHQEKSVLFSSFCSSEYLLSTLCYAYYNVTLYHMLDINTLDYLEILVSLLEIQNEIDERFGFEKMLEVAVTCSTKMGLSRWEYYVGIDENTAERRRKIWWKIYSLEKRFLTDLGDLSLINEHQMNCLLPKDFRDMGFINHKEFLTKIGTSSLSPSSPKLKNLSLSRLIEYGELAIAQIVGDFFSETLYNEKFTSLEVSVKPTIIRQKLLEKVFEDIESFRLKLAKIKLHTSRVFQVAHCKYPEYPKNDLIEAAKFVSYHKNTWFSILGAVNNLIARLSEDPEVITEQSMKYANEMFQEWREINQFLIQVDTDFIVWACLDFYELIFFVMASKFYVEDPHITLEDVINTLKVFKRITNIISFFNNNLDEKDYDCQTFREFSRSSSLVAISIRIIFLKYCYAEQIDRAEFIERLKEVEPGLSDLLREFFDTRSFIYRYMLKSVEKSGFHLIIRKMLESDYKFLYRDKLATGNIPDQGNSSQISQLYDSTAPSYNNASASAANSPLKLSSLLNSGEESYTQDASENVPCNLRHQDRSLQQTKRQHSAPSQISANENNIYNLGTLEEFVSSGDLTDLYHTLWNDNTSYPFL
In short: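 For each ungapped eight-base word taken together with its reverse complement, the Universal PBM Analysis Suite assigned an E-score. Binding data came from GST-tagged yeast transcription factors, applied at about 100-200 nM, on universal all-10-mer Agilent arrays made double-stranded by primer extension. Fluorescent anti-GST marked bound protein, and scans were normalised with masliner.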

Sequence | PBM E-score
ACACCTGC | -0.102
ATGTATTC | 0.185
ACCTACTG | -0.153
CTGCGAGA | -0.178
GATCACCC | -0.0514
ACTGCTGG | -0.234
CGTGCACC | 0.00656
ACGAGTAA | 0.0153
GCTCAGTA | -0.0363
ATACAGCG | -0.116
CTTATAAC | -0.111
AAAGTTTG | -0.0158
CTACCCAC | -0.189
CTCGGCCA | 0.18
ACGTGCTC | 0.00194
CAGAAGCA | -0.0683
ACGGCTCA | 0.039
ATACTAAC | 0.148
AGCGAGAA | -0.065
ACGTATCG | -0.108
TCAACAGA | 0.0244
CGCAGTGC | -0.141

Sequence | PBM E-score
CGGAATTC | 0.434
ACCGTGCC | 0.0603
CTTATTAC | -0.161
CCCGGGCG | 0.421
ACGTACTG | -0.121
CACGTAGG | -0.172
AGTGGAAA | -0.0658
AAGCAGAC | -0.156
CTTCATAC | 0.0678
ATCAACAC | 0.0264
ACATCTAG | -0.155
TCTAGACA | -0.138
CCGTGCGA | 0.24
CTGAAAGA | -0.208
ACCATGGC | -0.00532
AAAAGATA | -0.0521
CCATCCCG | 0.31
CTTATCCA | -0.00809
AACTCCTG | -0.193
AACCGATA | 0.0731
TATCTCAA | -0.00609
GATTTGCA | 0.0408

Sequence | PBM E-score
GGCAATAC | 0.143
CGAGACCG | 0.171
GCCTTCGA | -0.173
GATGGCGC | 0.0279
CGTGGATC | 0.0458
ATAGGCAT | -0.0202
CTGTCAAA | -0.186
GTCACACA | -0.0225
ACTACTAT | 0.132
GCGAGTCC | -0.0398
CTGTCGCC | 0.0223
ATCGGGCC | 0.0776
GAGCTCTA | 0.137
CGCCTGGA | -0.0178
AATCAACA | 0.115
CTTGAGCC | -0.219
ACGTAAGA | -0.219
TAATTCAA | -0.0594
GACTCGAA | -0.181
CCTAGCTC | 0.0142
TAATCGAA | 0.0314
GGTTTTAA | -0.00211

Sequence | PBM E-score
AGACCCTG | -0.293
AACATGCA | -0.043
CCACTGCA | -0.0534
CAAGATGG | -0.0684
GGCTTGAA | 0.0178
CCAACCCG | 0.282
CACTTTGG | -0.0908
TCGATAAA | 0.0139
CATCTAAG | -0.0771
AGACCTAC | -0.0832
AGGGGTTA | -0.144
GCCTTCAC | -0.0401
CAAATTGG | -0.115
AAATGGGA | -0.167
GCGAAAAA | 0.0463
AGACGGCC | 0.109
CCGGTTGC | 0.313
ACACCGTG | -0.00244
AATGGCGA | 0.17
GGTGTGAA | 0.0718
